{"source": "the supplement of paper PMC8728848", "binders": {"B1": {"name": "Surfactant Protein D (Human); Neck + Carbohydrate Recognition Domain (NCRD) (Homo sapiens) (protein)", "chain": "MLLFLLSALVLLTQPLGYLEAEMKTYSHRTMPSACTLVMCSSVESGLPGRDRDGREGPRGEKGDPGLPGAAGQAGMPGQAGPVGPKGDNGSVGEPGPKGDTGPSGPPGPPGVPGPAGREGALGKQGNIGPQGKPGPKGEAGPKGEVGAPGMQGSAGARGLAGPKGERGVPGERGVPGNTGAAGSAGAMGPQGSPGARGPPGLKGDKGIPGDKGAKGESGLPDVASLRQQVEALQGQVQHLQAAFSQYKKVELFPNGQSVGEKIFKTAQFVKPFTEAQLLCTQAGGQLASPRSAAENAALQQLVVAKNEAAFLSMTDSKTEGKFTYPTGESLVYSNWAPGEPNDDGGSEDCVEIFTNGKWNDIACGEKRLVVCEF"}}, "test_in_all_cases": "glycan array binding signal (z-score within array); higher = stronger binding", "conditions_in_all_cases": "glycan notation: IUPAC condensed, linker removed; mutation: R343I", "key": {"[1]": {"target": "GlcNAc(b1-3)[GlcNAc(b1-6)]GalNAc", "how_it_was_run": "(§1)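 Glycan array binding is given as a within-array Z-score, which can be read as non-binding when negative. The arrays, 3228 of them, came from the Consortium for Functional Glycomics database and were retained only where the protein sequence was available. Z-scores were averaged across arrays of the same protein sequence at different concentrations or buffers and across linkers.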"}, "[2]": {"target": "GlcNAc(b1-4)Gal(b1-4)GlcNAc", "how_it_was_run": "as §1"}, "GlcNAc(b1-4)GlcNAc": {"target": "GlcNAc(b1-4)GlcNAc", "how_it_was_run": "as §1"}, "[3]": {"target": "GlcNAc(b1-4)GlcNAc(b1-4)GlcNAc", "how_it_was_run": "as §1"}, "[4]": {"target": "GlcNAc(b1-4)GlcNAc(b1-4)GlcNAc(b1-4)GlcNAc(b1-4)GlcNAc", "how_it_was_run": "as §1"}, "[5]": {"target": "GlcNAc(b1-4)GlcNAc(b1-4)GlcNAc(b1-4)GlcNAc(b1-4)GlcNAc(b1-4)GlcNAc", "how_it_was_run": "as §1"}, "[6]": {"target": "GlcNAc(b1-4)[GlcNAc(b1-6)]GalNAc", "how_it_was_run": "as §1"}, "[7]": {"target": "GlcNAc(b1-6)Gal(b1-4)GlcNAc", "how_it_was_run": "as §1"}, "GlcNAc(b1-6)GalNAc": {"target": "GlcNAc(b1-6)GalNAc", "how_it_was_run": "as §1"}, "GlcNAc3Prop(b1-4)GlcNAc": {"target": "GlcNAc3Prop(b1-4)GlcNAc", "how_it_was_run": "as §1"}, "Kdn(a2-3)Gal(b1-3)GlcNAc": {"target": "Kdn(a2-3)Gal(b1-3)GlcNAc", "how_it_was_run": "as §1"}, "Kdn(a2-3)Gal(b1-4)GlcNAc": {"target": "Kdn(a2-3)Gal(b1-4)GlcNAc", "how_it_was_run": "as §1"}, "[8]": {"target": "Man(a1-2)Man(a1-2)Man(a1-3)Man", "how_it_was_run": "as §1"}, "[9]": {"target": "Man(a1-2)Man(a1-2)Man(a1-6)[Man(a1-3)]Man", "how_it_was_run": "as §1"}, "Man(a1-2)Man(a1-3)Man": {"target": "Man(a1-2)Man(a1-3)Man", "how_it_was_run": "as §1"}, "[10]": {"target": "Man(a1-2)Man(a1-3)[Man(a1-2)Man(a1-6)]Man", "how_it_was_run": "as §1"}, "[11]": {"target": "Man(a1-2)Man(a1-3)[Man(a1-2)Man(a1-6)]Man(a1-6)[Man(a1-2)Man(a1-2)Man(a1-3)]Man", "how_it_was_run": "as §1"}, "[12]": {"target": "Man(a1-2)Man(a1-3)[Man(a1-2)Man(a1-6)]Man(a1-6)[Man(a1-2)Man(a1-2)Man(a1-3)]Man(b1-4)GlcNAc(b1-4)GlcNAc", "how_it_was_run": "as §1"}, "[13]": {"target": "Man(a1-2)Man(a1-3)[Man(a1-6)]Man(a1-6)[Man(a1-2)Man(a1-3)]Man(b1-4)GlcNAc(b1-4)GlcNAc", "how_it_was_run": "as §1"}, "[14]": {"target": "Man(a1-2)Man(a1-6)[Man(a1-3)]Man(a1-6)[Man(a1-2)Man(a1-2)Man(a1-3)]Man", "how_it_was_run": "as §1"}, "[15]": {"target": "Man(a1-2)Man(a1-6)[Man(a1-3)]Man(a1-6)[Man(a1-2)Man(a1-2)Man(a1-3)]Man(b1-4)GlcNAc(b1-4)GlcNAc", "how_it_was_run": "as §1"}, "Man(a1-3)[Man(a1-6)]Man": {"target": "Man(a1-3)[Man(a1-6)]Man", "how_it_was_run": "as §1"}, "[16]": {"target": "Man(a1-3)[Man(a1-6)]Man(a1-6)[Man(a1-2)Man(a1-3)]Man(b1-4)GlcNAc(b1-4)GlcNAc", "how_it_was_run": "as §1"}, "[17]": {"target": "Man(a1-3)[Man(a1-6)]Man(a1-6)[Man(a1-3)]Man", "how_it_was_run": "as §1"}, "[18]": {"target": "Man(a1-3)[Man(a1-6)]Man(a1-6)[Man(a1-3)]Man(b1-4)GlcNAc(b1-4)GlcNAc", "how_it_was_run": "as §1"}, "[19]": {"target": "Man(a1-3)[Man(a1-6)]Man(b1-4)GlcNAc(b1-4)GlcNAc", "how_it_was_run": "as §1"}, "Man(a1-6)Man": {"target": "Man(a1-6)Man", "how_it_was_run": "as §1"}, "Man(b1-4)GlcNAc": {"target": "Man(b1-4)GlcNAc", "how_it_was_run": "as §1"}, "Neu5Ac(a2-3)Gal": {"target": "Neu5Ac(a2-3)Gal", "how_it_was_run": "as §1"}, "[20]": {"target": "Neu5Ac(a2-3)Gal(b1-3)GalNAc", "how_it_was_run": "as §1"}, "[21]": {"target": "Neu5Ac(a2-3)Gal(b1-3)GalNAc(b1-3)Gal(a1-4)Gal(b1-4)Glc", "how_it_was_run": "as §1"}, "[22]": {"target": "Neu5Ac(a2-3)Gal(b1-3)GalNAc(b1-3)Gal(b1-4)GlcNAc", "how_it_was_run": "as §1"}, "[23]": {"target": "Neu5Ac(a2-3)Gal(b1-3)GalNAc(b1-4)[Neu5Ac(a2-3)]Gal(b1-4)Glc", "how_it_was_run": "as §1"}, "[24]": {"target": "Neu5Ac(a2-3)Gal(b1-3)GalNAc6S", "how_it_was_run": "as §1"}, "[25]": {"target": "Neu5Ac(a2-3)Gal(b1-3)GlcNAc", "how_it_was_run": "as §1"}, "[26]": {"target": "Neu5Ac(a2-3)Gal(b1-3)GlcNAc(b1-3)Gal(b1-3)GlcNAc", "how_it_was_run": "as §1"}, "[27]": {"target": "Neu5Ac(a2-3)Gal(b1-3)GlcNAc6S", "how_it_was_run": "as §1"}, "[28]": {"target": "Neu5Ac(a2-3)Gal(b1-3)[Fuc(a1-4)]GlcNAc", "how_it_was_run": "as §1"}}, "note": "The other results are listed elsewhere or left out.", "data": [{"binder": "B1", "values": [{"measurement": "glycan array binding signal (z-score)", "setting": "[1]", "result": -0.167}, {"measurement": "glycan array binding signal (z-score)", "setting": "[2]", "result": -0.27}, {"measurement": "glycan array binding signal (z-score)", "setting": "GlcNAc(b1-4)GlcNAc", "result": -0.23}, {"measurement": "glycan array binding signal (z-score)", "setting": "[3]", "result": 0.081}, {"measurement": "glycan array binding signal (z-score)", "setting": "[4]", "result": -0.056}, {"measurement": "glycan array binding signal (z-score)", "setting": "[5]", "result": -0.204}, {"measurement": "glycan array binding signal (z-score)", "setting": "[6]", "result": -0.05}, {"measurement": "glycan array binding signal (z-score)", "setting": "[7]", "result": -0.275}, {"measurement": "glycan array binding signal (z-score)", "setting": "GlcNAc(b1-6)GalNAc", "result": -0.272}, {"measurement": "glycan array binding signal (z-score)", "setting": "GlcNAc3Prop(b1-4)GlcNAc", "result": -0.278}, {"measurement": "glycan array binding signal (z-score)", "setting": "Kdn(a2-3)Gal(b1-3)GlcNAc", "result": -0.257}, {"measurement": "glycan array binding signal (z-score)", "setting": "Kdn(a2-3)Gal(b1-4)GlcNAc", "result": -0.275}, {"measurement": "glycan array binding signal (z-score)", "setting": "[8]", "result": 4.64}, {"measurement": "glycan array binding signal (z-score)", "setting": "[9]", "result": 3.86}, {"measurement": "glycan array binding signal (z-score)", "setting": "Man(a1-2)Man(a1-3)Man", "result": 4.19}, {"measurement": "glycan array binding signal (z-score)", "setting": "[10]", "result": 1.37}, {"measurement": "glycan array binding signal (z-score)", "setting": "[11]", "result": 4.37}, {"measurement": "glycan array binding signal (z-score)", "setting": "[12]", "result": 2.4}, {"measurement": "glycan array binding signal (z-score)", "setting": "[13]", "result": 4.08}, {"measurement": "glycan array binding signal (z-score)", "setting": "[14]", "result": 4.33}, {"measurement": "glycan array binding signal (z-score)", "setting": "[15]", "result": 4}, {"measurement": "glycan array binding signal (z-score)", "setting": "Man(a1-3)[Man(a1-6)]Man", "result": 0.263}, {"measurement": "glycan array binding signal (z-score)", "setting": "[16]", "result": 4.22}, {"measurement": "glycan array binding signal (z-score)", "setting": "[17]", "result": 4.22}, {"measurement": "glycan array binding signal (z-score)", "setting": "[18]", "result": 2.45}, {"measurement": "glycan array binding signal (z-score)", "setting": "[19]", "result": 1.35}, {"measurement": "glycan array binding signal (z-score)", "setting": "Man(a1-6)Man", "result": -0.261}, {"measurement": "glycan array binding signal (z-score)", "setting": "Man(b1-4)GlcNAc", "result": 0.903}, {"measurement": "glycan array binding signal (z-score)", "setting": "Neu5Ac(a2-3)Gal", "result": -0.275}, {"measurement": "glycan array binding signal (z-score)", "setting": "[20]", "result": -0.278}, {"measurement": "glycan array binding signal (z-score)", "setting": "[21]", "result": -0.272}, {"measurement": "glycan array binding signal (z-score)", "setting": "[22]", "result": -0.279}, {"measurement": "glycan array binding signal (z-score)", "setting": "[23]", "result": -0.277}, {"measurement": "glycan array binding signal (z-score)", "setting": "[24]", "result": -0.275}, {"measurement": "glycan array binding signal (z-score)", "setting": "[25]", "result": -0.273}, {"measurement": "glycan array binding signal (z-score)", "setting": "[26]", "result": -0.268}, {"measurement": "glycan array binding signal (z-score)", "setting": "[27]", "result": -0.275}, {"measurement": "glycan array binding signal (z-score)", "setting": "[28]", "result": -0.268}]}]}
